Drawing on PMC7819943, “Rice protein-binding microarrays: a tool to detect cis-acting elements near promoter regions in rice”, this text covers binding signal for 42 sequences.

Some of the results follow.

The assay concerns the target T1, OsWOX13 (Oryza sativa, UniProt Q5QMM3 1-267).
T1 sequence: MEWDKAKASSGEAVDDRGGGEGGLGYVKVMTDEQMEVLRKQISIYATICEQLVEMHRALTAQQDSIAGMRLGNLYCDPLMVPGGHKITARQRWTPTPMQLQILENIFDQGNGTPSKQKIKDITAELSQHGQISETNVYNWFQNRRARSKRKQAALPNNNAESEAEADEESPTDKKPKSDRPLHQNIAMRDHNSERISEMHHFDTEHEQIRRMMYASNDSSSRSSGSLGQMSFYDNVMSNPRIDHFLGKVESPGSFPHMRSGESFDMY
Description: protein-binding microarray (RPBM); PBS, 2% BSA, 51.3 ng/ul salmon testes DNA, 50 uM zinc acetate, 200 nM TF, 25 C, 1 h; high values mean tight binding. To be noted: protein: recombinant; tags: N-terminal polyhistidine and DsRed monomer fusion (pET32a); label: CyDye5-dUTP incorporated in the synthesized complementary strand; 3' TTTTT single-stranded linker to array surface; dsDNA, one strand shown. In a few lines: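 Using Ni–NTA, transcription factors fused N-terminally to polyhistidine and DsRed were purified after expression in E. coli BL21-CodonPlus. These were incubated at 200 nM with a blocked, double-stranded custom Agilent array for 1 h at 25 °C in a buffer containing 50 µM zinc acetate, and the array was washed. The binding signal is per-feature fluorescence intensity (arbitrary units) on an Axon 4000B scanner.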
Consider “GTCAATCAAGTCATCTAATTAGAACCCAAATCACATTAGACGGAGTCACCTAGTGCAG”, for which the binding signal was 42000 fluorescence intensity (a.u.).

As to “CACTAAAATAATTAGTGCAATGTCCGTTCACAAATTACGACGGAGTCACCTAGTGCAG”, the binding signal was 5520 fluorescence intensity (a.u.).

Consider “TCATTAGCGTATAATTAATTGAGTATTAACTATTTTAAACCGGAGTCACCTAGTGCAG”, for which the binding signal was 9420 fluorescence intensity (a.u.).

On to “GCATGTTTTCATAATCAATCGGTCAATTGTATGGACATATCGGAGTCACCTAGTGCAG”, for which the binding signal is 4330 fluorescence intensity (a.u.).

With “AACAAGACATATTGAGAAGATGATTGGGGAGTTATAGACGCGGAGTCACCTAGTGCAG”, the binding signal is 14000 fluorescence intensity (a.u.).

“CTCTAATTATGGATATGTACGCAACGTATAAGAGCGAGTACGGAGTCACCTAGTGCAG”: the binding signal was 12900 fluorescence intensity (a.u.).

“AACTTTGTTCATTTCTTTTCAATTATTATTTGTGCTCTGACGGAGTCACCTAGTGCAG”: the binding signal is 3540 fluorescence intensity (a.u.).

Turning to “CATAAACATTTGATCATCATTAAGGGCATATTCTTTGGTACGGAGTCACCTAGTGCAG”, the binding signal was 4630 fluorescence intensity (a.u.).

“TCTTTGTTGATTACTGCAGTTGAAATTTCGTCGAAGTATACGGAGTCACCTAGTGCAG”: the binding signal was 20500 fluorescence intensity (a.u.).

Consider “TACTTCAATCAAGCTATTTGTTCAAAGCCTCCTTTCTTGACGGAGTCACCTAGTGCAG”, for which the binding signal was 13400 fluorescence intensity (a.u.).

“TATAATAAATGACCTGAAAATTTTGGGATGAAGGCAGTAGCGGAGTCACCTAGTGCAG”: the binding signal is 3230 fluorescence intensity (a.u.).

“ATTAATTATCATATAACGGTGTTATGTGGAGTGTGATGATCGGAGTCACCTAGTGCAG”: the binding signal was 34100 fluorescence intensity (a.u.).

In the case of “CATGAAAATTATTAATGGTGATGGTTATTGTCCGCCGAAGCGGAGTCACCTAGTGCAG”, the binding signal was 9010 fluorescence intensity (a.u.).

With “CAGATGTAATTGCTGCATCAATGCGCCCGTGTCGGTGGGTCGGAGTCACCTAGTGCAG”, the binding signal was 36600 fluorescence intensity (a.u.).

Turning to “CTCTAATCGAAGGTGATTTGTGCGGCATTGAGTTTGGGATCGGAGTCACCTAGTGCAG”, the binding signal was 21400 fluorescence intensity (a.u.).

For “GAACTAATTGATACATTAGCCACTTGATGAGCTCCTCTCCCGGAGTCACCTAGTGCAG”, the binding signal was 58600 fluorescence intensity (a.u.).

In the case of “ACTGACTGACTGACTGACTAATAGGGATGAAAGCGGTCAGCGGAGTCACCTAGTGCAG”, the binding signal is 38000 fluorescence intensity (a.u.).

In the case of “TAGCTGCTGACAATGATTGACTTTGGAACACGCAGGTAAGCGGAGTCACCTAGTGCAG”, the binding signal was 23800 fluorescence intensity (a.u.).

With “GGAATAAATTATATTATCTATCTCTACTCCTCTCTCTTCTCGGAGTCACCTAGTGCAG”, the binding signal is 11000 fluorescence intensity (a.u.).

“GCCTTATAACTGAAAGATCATCATTACCTTCATCAGAGTTCGGAGTCACCTAGTGCAG”: the binding signal was 3330 fluorescence intensity (a.u.).

“TTGTAAAGATTTAATTATTATGAACACAACGGTGTAATCGCGGAGTCACCTAGTGCAG”: the binding signal was 6840 fluorescence intensity (a.u.).

Turning to “ATGATTCGGAATAATTAATTATTTGTCACTCCTATCTATTCGGAGTCACCTAGTGCAG”, the binding signal was 31000 fluorescence intensity (a.u.).

Regarding “TTGATTACGGTTTAGTCAGAACATTTGCGAATTGCAATGCCGGAGTCACCTAGTGCAG”, the binding signal was 10400 fluorescence intensity (a.u.).

In the case of “GAGCTAATTAATTAGTATTAGAATTTTCAGTCAATTCAGACGGAGTCACCTAGTGCAG”, the binding signal was 35600 fluorescence intensity (a.u.).

With “ATTAACTATAAATGATTTGGAGTCAATAGTTGGCTATAATCGGAGTCACCTAGTGCAG”, the binding signal is 16100 fluorescence intensity (a.u.).

As for “GAACCCTAATTTTGTAGCTATACTATTTGATGCGATGCGACGGAGTCACCTAGTGCAG”, the binding signal is 3230 fluorescence intensity (a.u.).

“GAGTCAAATTGAACCTATTCCCTCAAGCTATGCAGGTTCTCGGAGTCACCTAGTGCAG”: the binding signal was 4980 fluorescence intensity (a.u.).

For “TCTGATGATCTCACTGGATTTGGAAACGCCGTGTTCTTGGCGGAGTCACCTAGTGCAG”, the binding signal is 5050 fluorescence intensity (a.u.).

As to “GCTAATTTCACTTTTAACTAAACCGCATAACAATAATAAGCGGAGTCACCTAGTGCAG”, the binding signal is 14600 fluorescence intensity (a.u.).

For the sequence “ATTCGTAATTTCTCGTATTTATCTCAACTTTTAACGGTGCCGGAGTCACCTAGTGCAG”, the binding signal was 9940 fluorescence intensity (a.u.).

As for “CAAATTTAATCATCTAATTATTAATATGTACTTACTTCCGCGGAGTCACCTAGTGCAG”, the binding signal is 29900 fluorescence intensity (a.u.).

With “CTTATTGTTTTGATTATGCTTATGTGAATCGCTTATTAACCGGAGTCACCTAGTGCAG”, the binding signal is 3430 fluorescence intensity (a.u.).

“CTGTTGATGAACAGTATCAATCCAAAACACACATGCCAATCGGAGTCACCTAGTGCAG”: the binding signal is 5580 fluorescence intensity (a.u.).

As to “CAATTTCTGTGCTTTAATTGATTTACTATGCAATGCAGGTCGGAGTCACCTAGTGCAG”, the binding signal was 20800 fluorescence intensity (a.u.).

For “AGGAGGAAGAAGGGATAGATTGATATGTGGGCCCCACATGCGGAGTCACCTAGTGCAG”, the binding signal was 5080 fluorescence intensity (a.u.).

“CGTTTAATATTTATAATTAATTTCTAAACATCCAATGTGACGGAGTCACCTAGTGCAG”: the binding signal is 15400 fluorescence intensity (a.u.).

Turning to “GTATAGTTATTTGATTTGCTACCAATTTATGCTCTCACTACGGAGTCACCTAGTGCAG”, the binding signal is 7210 fluorescence intensity (a.u.).

Regarding “CTTTTCGATTGAATGACTAGGTGTTTTGTGTTAATCTTGTCGGAGTCACCTAGTGCAG”, the binding signal is 21800 fluorescence intensity (a.u.).

With “TGCATGCAGTCATCAAAATAGACATACAATTGTTAGGACACGGAGTCACCTAGTGCAG”, the binding signal was 6330 fluorescence intensity (a.u.).

In the case of “ACCAGATTACTATTGCTACACAAAATGTCAAATTGTTCCACGGAGTCACCTAGTGCAG”, the binding signal was 3220 fluorescence intensity (a.u.).

As to “ATTTAATTATTTATTCCAACGCAGAGAAGAATTTTAGAAGCGGAGTCACCTAGTGCAG”, the binding signal was 31300 fluorescence intensity (a.u.).

Regarding “ATAATTAATGTATGATGCGCAAATAAAATGGTTATATCATCGGAGTCACCTAGTGCAG”, the binding signal was 13800 fluorescence intensity (a.u.).
